Data: PubChem BioAssay AID504339 (National Center for Advancing Translational Sciences (NCATS), 2011)
Out of some 390,000 compounds screened, about 17,000 (4.4%) were called active. Inconclusive means that the source gave no clear call. Such entries were picked first, then a sample of the others. Calls follow the shape of the dose curve; as a rule, active = well fitted inhibition curve with a large enough effect; inconclusive = small, poorly fitted or top-dose-only effect; inactive = no such curve, though single readings can be large or run the other way. Potencies beside an inconclusive call are fits to weak or partial responses and may not hold up.
Also: nearly all actives have a fitted effect of over 50% in size.
Potency is read from the fitted curve at half-maximal effect; tags tell the direction and shape of the fitted curve.

What follows are molecules tested against Lysine-specific demethylase 4A (Homo sapiens) (UniProt O75164) (assay: qHTS Assay for Inhibitors of JMJD2A-Tudor Domain). Details: AlphaScreen JMJD2A-Tudor / H3K4me3 peptide binding; series mostly up to 114 µM.
Sequence of UniProt O75164 (O75164 whole entry, looked up, the tested form may be a part): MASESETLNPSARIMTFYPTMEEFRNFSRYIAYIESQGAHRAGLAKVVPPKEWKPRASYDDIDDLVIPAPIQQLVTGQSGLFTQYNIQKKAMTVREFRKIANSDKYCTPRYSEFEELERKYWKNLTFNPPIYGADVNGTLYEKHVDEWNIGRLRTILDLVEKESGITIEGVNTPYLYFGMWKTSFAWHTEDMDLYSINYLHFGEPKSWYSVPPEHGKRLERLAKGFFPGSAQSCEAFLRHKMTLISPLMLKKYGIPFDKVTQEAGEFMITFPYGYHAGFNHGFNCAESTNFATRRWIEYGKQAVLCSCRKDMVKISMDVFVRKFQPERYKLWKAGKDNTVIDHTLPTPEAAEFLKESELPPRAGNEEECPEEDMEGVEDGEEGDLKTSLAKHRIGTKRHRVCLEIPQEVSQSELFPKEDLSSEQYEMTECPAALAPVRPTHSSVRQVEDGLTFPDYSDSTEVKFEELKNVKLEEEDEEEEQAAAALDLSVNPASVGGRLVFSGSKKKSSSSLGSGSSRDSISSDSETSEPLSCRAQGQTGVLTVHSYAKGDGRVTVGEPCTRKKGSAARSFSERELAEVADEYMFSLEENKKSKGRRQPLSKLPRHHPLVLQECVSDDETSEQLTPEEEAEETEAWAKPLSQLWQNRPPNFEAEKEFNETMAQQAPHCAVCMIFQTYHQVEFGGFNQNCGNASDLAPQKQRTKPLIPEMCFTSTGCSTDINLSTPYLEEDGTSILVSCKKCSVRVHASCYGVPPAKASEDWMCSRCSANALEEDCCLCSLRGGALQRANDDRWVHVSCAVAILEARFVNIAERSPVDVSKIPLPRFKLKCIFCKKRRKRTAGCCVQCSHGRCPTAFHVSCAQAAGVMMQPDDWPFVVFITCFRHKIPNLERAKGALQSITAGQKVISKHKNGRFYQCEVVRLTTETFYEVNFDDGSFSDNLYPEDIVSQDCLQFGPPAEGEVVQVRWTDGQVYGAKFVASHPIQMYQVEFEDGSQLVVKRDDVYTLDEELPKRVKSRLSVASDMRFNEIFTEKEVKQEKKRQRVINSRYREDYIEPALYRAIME
With `O=C(NC1CCN(C(=O)Nc2ccc(F)cc2)CC1)c1ccccc1F` the Potency was “inactive”.
For `Cc1cccc2sc(NC(=O)C3CCCN(S(=O)(=O)c4cccc5nonc45)C3)nc12` (stereo not given), the Potency was “inactive”.
With `Cc1cc(C)nc(NN=CC2=C(N3CCOCC3)/C(=C/c3ccc(Cl)cc3)CC2)n1` the Potency was inconclusive: 50.1 µM [inhibitor, partial curve].
With `COc1ccccc1-c1nc(S(=O)(=O)c2ccccc2)c(N2CCCCC2)o1` the Potency was active: 79.4 µM.
For `O=C1c2ccccc2S(=O)(=O)c2cc(C(=O)N3CCN(c4ccc(Cl)cn4)CC3)ccc21`, the Potency was inconclusive: 22.4 µM [inhibitor, full curve].
`Cc1[nH]n(-c2ccccc2)c(=O)c1N=Nc1cccc(Cl)c1` was tested, and the Potency was inconclusive: 12.6 µM [inhibitor, full curve].
With `COc1ccc(Cn2nnnc2C(C(C)C)N2CCN(c3ccccc3OC)CC2)cc1` (stereo not given) the Potency was “inactive”.
For `COc1ccc(OC)c(C(=O)COC(=O)c2ccc([N+](=O)[O-])o2)c1`, the Potency was inconclusive: 70.8 µM [inhibitor, partial curve, poor fit].
`Cc1c(C)n(C)c2ccc(C(=O)NCCCN3CCN(c4ccc(F)cc4)CC3)cc12` was tested, and the Potency was active: 56.2 µM.
In the case of `C=Cc1ccc(Cn2c(C(=O)O)c(CNCc3ccccc3)c3ccc(C)cc32)cc1`, the Potency was inconclusive: 39.8 µM [inhibitor, partial curve].
In the case of `COc1cccc(OC)c1C(=O)Nc1nnc(C(C)C)s1`, the Potency was “inactive”.
In the case of `N#Cc1ccccc1NC(=O)C1SC(=Nc2ccccc2)C(C(=O)Nc2ccc(Cl)cc2)=C1N` (stereo not given), the Potency was inconclusive: 79.4 µM [inhibitor, partial curve].
For `COc1ccc(-c2n[nH]c(C)c2-c2ccc(OC)c(OC)c2)c(O)c1`, the Potency was inconclusive: 89.1 µM [inhibitor, single point].
`Cc1[nH]n(-c2ccccc2)c(=O)c1CCOC(=O)c1ccc(C(F)(F)F)cc1` was tested, and the Potency was “inactive”.
With `Cc1ccc(C)n1-n1cnc2sc3c(c2c1=O)CCC3` the Potency was inconclusive: 44.7 µM [inhibitor, partial curve].
For `Cc1ccc(N2C(=O)CCC(C(=O)O)C2c2cccs2)cc1` (stereo not given), the Potency was “inactive”.
In the case of `CCOC(=O)C(NC(=O)c1cccnc1)(Nc1cccc(C)n1)C(F)(F)F` (stereo not given), the Potency was “inactive”.
In the case of `Cc1nc(-c2ccc(C)c(S(=O)(=O)N3CCC(C(=O)NCc4ccc(Cl)cc4)CC3)c2)no1`, the Potency was “inactive”.
In the case of `O=C(O)/C=C/c1cc(F)c(S(=O)(=O)N2CCN(S(=O)(=O)c3ccc4c(c3)OCCO4)CC2)cc1F`, the Potency was inconclusive: 89.1 µM [inhibitor, single point].
`CC(C(=O)NCC1CCCCC1)N1CCN(S(=O)(=O)c2ccccc2F)CC1` (stereo not given) was tested, and the Potency was “inactive”.
For `Cc1cc(Cl)cc(Cl)c1OCCN1CCCC1`, the Potency was active: 50.1 µM.
For `Cc1ccc(S(=O)(=O)N2[C@@H](c3ccc(C(C)(C)C)cc3)C(C(=O)O)=CC[C@H]2c2cccc(Cl)c2)cc1`, the Potency was inconclusive: 70.8 µM [inhibitor, single point].
With `Cc1cccc(CSc2nc3c(c(=O)[nH]2)C(c2cccc(O)c2)CC(=O)N3)c1` (stereo not given) the Potency was inconclusive: 14.1 µM [inhibitor, full curve, poor fit].
For `S=c1[nH]nc(-c2cc(-c3ccccc3)n[nH]2)n1/N=C/c1c(Cl)cccc1Cl`, the Potency was active: 44.7 µM.
For `O=C(Nc1ccccc1C(=O)O)c1ccc2c(c1)C(=O)N(c1cccc([N+](=O)[O-])c1)C2=O`, the Potency was inconclusive: 56.2 µM [inhibitor, partial curve].
In the case of `CCCCN1C(=O)/C(=C/C=C2/CC(C)(C)CN2C)SC1=S`, the Potency was inconclusive: 25.1 µM [inhibitor, single point].
`Cc1cccc(CN2CCN(CC(=O)NCc3ccc(Cl)cc3)C2=O)c1` was tested, and the Potency was “inactive”.
With `Cc1cccc(C(=O)OCC(=O)Nc2c(C)nn(-c3ccccc3)c2C)c1O` the Potency was “inactive”.
For `CCOC(=O)Cn1c(C)c(Br)c(COC)c(C#N)c1=O`, the Potency was “inactive”.
`O=C1C2CC=CCC2C(=O)N1c1ccc(NCCc2cccc(F)c2)c([N+](=O)[O-])c1` (stereo not given) was tested, and the Potency was inconclusive: 15.8 µM [inhibitor, partial curve].
In the case of `CN1CC(c2ccccc2)C2(COc3ccccc3C2=O)C12C(=O)Nc1ccccc12` (stereo not given), the Potency was inconclusive: 31.6 µM [inhibitor, partial curve].
In the case of `Cc1ccc(S(=O)(=O)N2CCC(C(=O)Nc3ccccc3N3CCCC3)CC2)c(C)c1`, the Potency was inconclusive: 15.8 µM [inhibitor, full curve, poor fit].
In the case of `CCOC(=O)c1ccccc1NC(=O)CSc1ccc(-c2ccccn2)nn1`, the Potency was active: 15.8 µM.
In the case of `Cc1c(C(=O)OC2CCCC2)[nH]c2c1C(=O)CC(c1ccco1)C2` (stereo not given), the Potency was inconclusive: 89.1 µM [inhibitor, partial curve].
In the case of `CCOc1ccc(S(=O)(=O)N/N=C(\C)C2CCCCC2)cc1`, the Potency was “inactive”.
With `C=CCn1c(COc2ccccc2F)nnc1SCC(=O)NC(=O)NCc1ccco1` the Potency was inconclusive: 25.1 µM [inhibitor, full curve].
With `CSCCC1(C(=O)O)NC(c2ccccc2O)C2C(=O)N(C(C)C)C(=O)C21` (stereo not given) the Potency was inconclusive: 15.8 µM [inhibitor, full curve].
In the case of `Cc1sc(NC(=O)c2ccco2)c(C(c2cccnc2)N2CCCC2)c1C` (stereo not given), the Potency was inconclusive: 56.2 µM [inhibitor, partial curve, poor fit].
In the case of `COc1cc(/C=N/NC(=O)CN(Cc2ccccc2)S(=O)(=O)c2ccc3c(c2)OCCO3)ccc1O`, the Potency was inconclusive: 50.1 µM [inhibitor, partial curve].
With `Oc1ccccc1CN1CCC(C(O)(c2ccccc2)c2ccccc2)CC1` the Potency was inconclusive: 3.16 µM [inhibitor, single point].
For `O=C(c1ccncc1)N(c1ccc2oc3c(c2c1)CCCC3)S(=O)(=O)c1cccc([N+](=O)[O-])c1`, the Potency was inconclusive: 44.7 µM [inhibitor, partial curve].
For `CC(=O)c1nnn(-c2cccc([N+](=O)[O-])c2)c1C`, the Potency was “inactive”.
In the case of `Cc1ccc(C(=O)N2CCCC(C(=O)c3ccc(Oc4ccccc4)cc3)C2)cn1` (stereo not given), the Potency was “inactive”.
With `COc1ccc(C(=O)/C=C(\C)Nc2ccc3c(c2)OCO3)cc1` the Potency was active: 28.2 µM.
For `Cn1cnc([N+](=O)[O-])c1Oc1ccccc1`, the Potency was “inactive”.
In the case of `Cc1c(C)c2ccc(OCC(=O)NC(Cc3ccc(Cl)cc3)C(=O)O)cc2oc1=O` (stereo not given), the Potency was “inactive”.
`c1ccc(CCNCc2cccs2)nc1` was tested, and the Potency was inconclusive: 25.1 µM [inhibitor, partial curve].
For `CC1Cc2cc(S(=O)(=O)NCc3ccccc3)ccc2N1C(=O)C1CC1` (stereo not given), the Potency was “inactive”.
`O=C(/C=C/c1cn(CC(O)CN2CCCCC2)c2ccccc12)c1cccs1` (stereo not given) was tested, and the Potency was inconclusive: 63.1 µM [inhibitor, single point].
With `CN(C)c1ccc(N2C(=O)CSC2=S)cc1` the Potency was active: 39.8 µM.
For `CCOc1cc(-c2nn3cnnc3s2)cc(OCC)c1OCC`, the Potency was active: 17.8 µM.
In the case of `Cn1c(=O)c2c(nc(N3CCCCC3)n2CCSc2nc3ccccc3s2)n(C)c1=O`, the Potency was inconclusive: 20 µM [inhibitor, partial curve, poor fit].
In the case of `CCn1c(SCC(=O)N2CCN(c3ccccc3F)CC2)nnc1-c1ccoc1C`, the Potency was active: 50.1 µM.
`O=C(Nc1ccc(F)cc1)C(=O)c1c(O)[nH]c2ccc([N+](=O)[O-])cc12` was tested, and the Potency was inconclusive: 100 µM [inhibitor, single point].
In the case of `O=C(Nc1cccc2cccnc12)c1c(Cl)cc(Cl)cc1Cl`, the Potency was “inactive”.
In the case of `CCS(=O)(=O)c1cc([N+](=O)[O-])c(Sc2ccccc2NC(C)=O)s1`, the Potency was active: 20 µM.
For `COc1cc(/C=N/NC(=O)CCN2CCN(C)CC2)cc2c1OCO2`, the Potency was active: 0.794 µM.
In the case of `O=C(CSc1nccn1Cc1ccc(Cl)cc1)Nc1ccc2c(c1)OCCO2`, the Potency was active: 50.1 µM.
`COc1cccc(C(c2c(O)cc(C)n(Cc3ccco3)c2=O)N2CCN(c3ccccc3)CC2)c1` (stereo not given) was tested, and the Potency was inconclusive: 56.2 µM [inhibitor, partial curve].
`CCCC(=O)OCc1cnc(C)c2oc(=O)c(C(=O)Nc3ccccc3)cc12` was tested, and the Potency was “inactive”.
With `S=C(c1ccc(N2CCCC2)cc1)N1CCCCC1` the Potency was inconclusive: 3.98 µM [inhibitor, single point].
In the case of `Cc1cc(O)c2c(c1O)C(=O)[C@]13C(=C2O)C(=O)[C@@H]2[C@@H](O)[C@H]1[C@@H]1[C@H](O)[C@H]3C(=O)C3=C(O)c4c(O)cc(C)c(O)c4C(=O)[C@]312`, the Potency was active: 7.94 µM.
For `Cc1cc(N/N=C/c2ccco2)c2ccccc2n1`, the Potency was inconclusive: 20 µM [inhibitor, partial curve].
With `Cc1ccc(C(=O)N2CCCCCC2)cc1Br` the Potency was inconclusive: 22.4 µM [inhibitor, single point].
For `Cc1cc(/C=C2\SC(=S)NC2=O)c(C)[nH]1`, the Potency was inconclusive: 31.6 µM [inhibitor, partial curve].
With `CC1=CC(C)(C)Nc2ccc(C)cc21` the Potency was inconclusive: 50.1 µM [inhibitor, partial curve].
For `CCOc1ccc2nc(N(CCN(CC)CC)C(=O)c3ccc([N+](=O)[O-])cc3)sc2c1`, the Potency was “inactive”.
`COc1ccccc1-c1nnc(NC(=O)c2ccc(S(=O)(=O)N(C)CC3CCCO3)cc2)o1` (stereo not given) was tested, and the Potency was inconclusive: 89.1 µM [inhibitor, single point].
In the case of `COc1cc(OC)cc(N(C(=O)c2ccco2)C(C(=O)NC2CCCC2)c2ccc(N(C)C)cc2)c1` (stereo not given), the Potency was inconclusive: 56.2 µM [inhibitor, partial curve, poor fit].
With `Cc1cc(C)c(NC(=S)NCC2CCN(C(C)c3ccccc3)C2)c(C)c1` (stereo not given) the Potency was inconclusive: 39.8 µM [inhibitor, partial curve, poor fit].
